# The list shows a part of the results. At the low end of the ranking the order means little.
# Target: T1, GST-Rok (full length) (UniProt O34857)
# T1 sequence: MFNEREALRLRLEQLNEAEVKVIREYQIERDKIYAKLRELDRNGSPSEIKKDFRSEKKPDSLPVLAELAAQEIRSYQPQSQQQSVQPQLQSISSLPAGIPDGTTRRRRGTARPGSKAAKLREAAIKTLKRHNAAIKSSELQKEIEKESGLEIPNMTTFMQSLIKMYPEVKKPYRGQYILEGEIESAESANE
# Experiment: protein binding microarray;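 note: rank score from −0.5 (least bound) to 0.5 (best bound)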
# Conditions: Rok is a gene silencer of Bacillus subtilis; high values mean tight binding; most listed sequences are background and not binding sites; double strand, one strand shown
row,Sequence,binding signal [E-score]
1,GTAATATA,0.391
2,GCTAGAAC,0.209
3,CCGGATCG,-0.156
4,GGATGAAC,0.0639
5,CGGTTAGA,-0.0152
6,CATGGAAA,-0.033
7,ATGGTTGA,0.0308
8,CACGCCGC,-0.284
9,AGTATGGA,0.097
10,ACTAGATA,0.402
11,CCCGAGCC,-0.374
12,CCCAACGA,-0.282
13,CCCATGGG,-0.229
14,CTACGTCC,0.149
15,GCAGGCTA,-0.279
16,CACAGGAG,-0.196
17,TAATTAAA,0.259
18,GAACTAAC,0.216
19,AGCTTCAC,-0.0162
20,TGAGGACA,-0.062
21,CGTACTAA,0.217
22,CATCGCAC,0.0143
23,CGGTACAG,0.0499
24,CATAAGTC,-0.1
25,GACGCAAC,0.231

row,Sequence,binding signal [E-score]
1,GTCGCAAA,-0.0931
2,GAATACGC,0.167
3,ATCGCGTG,-0.0961
4,AGACCATA,0.114
5,CATTATCG,0.148
6,CGGTCTAG,-0.0138
7,CCTTAAGA,-0.0361
8,AGCTTGCG,-0.164
9,AAGTTCAG,0.0854
10,CTAGAGGA,-0.0599
11,ACGCTACA,0.113
12,TGATTACA,0.139
13,ACCTCGCC,-0.179
14,ACGCTGAC,-0.0558
15,TCTACAAA,0.255
16,ATGAGTTG,-0.0707
17,GATCCTGC,-0.187
18,GGTTCTTA,-0.136
19,ACACGACA,-0.0272
20,CCACCGGA,-0.0835
21,AATGCCCT,-0.062
22,GCTCGGCC,-0.342
23,CTATGCCC,-0.283
24,CGCGCGCA,0.14
25,CGAGCAGA,-0.105

row,Sequence,binding signal [E-score]
1,GAGCTCAC,-0.145
2,TATTTCGA,0.235
3,GCCCCGAA,-0.136
4,AATGACAC,-0.00549
5,GACAGGCC,-0.286
6,ACTTTTAG,0.0682
7,CGCCAATC,-0.127
8,ACGTCCCC,-0.306
9,GAATTTCC,-0.0058
10,AGCACGTC,-0.0902
11,CACTCAGA,-0.0327
12,GGAACAAA,0.0514
13,ACGAGTAC,0.171
14,GAACATAC,0.101
15,TACGCGCA,-0.0904
16,ACGTAGTA,0.24
17,AGCTTCCA,-0.0198
18,CTGCCAAC,-0.103
19,GACCGGAA,0.0269
20,CCCATAAG,-0.19
21,CATTTTAC,0.349
22,AGGATCCT,-0.0466
23,TAACAGAA,0.205
24,AGTAGGAA,0.231
25,CGCTTACG,0.058

row,Sequence,binding signal [E-score]
1,GCACTAAC,-0.161
2,TAATGGTA,0.387
3,CACGAGGA,-0.174
4,ATCGTCAT,0.0846
5,CGTCGAAC,-0.092
6,GCAGTACC,-0.189
7,GCGGAACA,0.0356
8,AGAGGGTA,-0.0286
9,AATCGCCC,-0.137
10,AACGATCA,0.00961
11,AACTGTGT,-0.00841
12,GAAGCTGA,0.0384
13,CGTCCGGA,-0.0158
14,CACAGTAG,0.0684
15,AGGTCAGG,-0.168
16,AGAGATAT,0.16
17,CTTAAGAA,0.0746
18,CTTGCTGC,-0.241
19,CAAGTGCG,0.0336
20,AAGGGGAT,-0.315
21,ACTGAACC,0.0976
22,ATTCTGTC,0.152
23,AAGCTTTA,0.0476
24,GGAAAACA,-0.037
25,ATATCCAG,0.0693

row,Sequence,binding signal [E-score]
1,CCTCCCAA,-0.219
2,TAAGCGGA,-0.0509
3,AATCTGTA,0.326
4,CTGTTGCC,-0.15
5,GTCGAAAC,0.0241
6,AGGGAGGA,-0.279
7,CGGAAAGA,0.0118
8,ATCGGTGC,0.0166
9,ACGCGGCG,-0.352
10,GAATGTGA,-0.00931
11,CGGCTTTA,-0.104
12,CGTGTAAC,0.164
13,ATGAGTGG,-0.0865
14,AACTTCCA,0.0197
15,CAAGCGTG,-0.0526
16,AGGTGCAG,-0.204
17,GAGGATTA,-0.0511
18,GATATACA,0.25
19,CGGTACGC,-0.045
20,AGAATCTA,0.337
21,CTCGTGCC,-0.185
22,GGAAGTCA,-0.0578
23,CTTAGTAA,0.189
24,CGGTTTAG,-0.164
25,CAAGGATA,0.0818

row,Sequence,binding signal [E-score]
1,CCACTCGG,-0.233
2,ATTTGCGA,0.173
3,TCGGCGAA,0.0797
4,AAAAAGAG,-0.106
5,CGGATGAC,-0.0291
6,CGTAAAAG,0.0563
7,AAGCTTAT,0.0982
8,GACGCTCA,-0.0574
9,GTTGGTAA,0.0337
10,CCCCGTAA,-0.135
11,CAGATTAA,0.115
12,GTGGCCAA,-0.167
13,AACTATAG,0.331
14,AGGTGGTG,0.0573
15,AGTGGCGC,-0.221
16,ATACATAT,0.399
17,CGAACTCG,0.0764
18,ACTTAGTC,0.157
19,ATAATCAG,0.0542
20,ACAGAAGG,-0.105
21,CCTTCGAC,-0.124
22,ATCCCCAA,-0.0597
23,ACGGCAAC,0.084
24,ACATGCAT,0.252
25,ACGGCACG,-0.102

row,Sequence,binding signal [E-score]
1,ATACCCAG,0.0725
2,CATAATCC,0.0273
3,AGGTACGA,0.112
4,AAAGGAAA,-0.328
5,CGCGCGGA,-0.0543
6,CCCTTTAG,-0.19
7,AAATTTCT,0.186
8,CCACCCAA,-0.261
9,ACGACTGG,-0.175
10,AGAGAGTA,-0.00625
11,AGCGTCGC,-0.181
12,GGGTGGAA,-0.375
13,GCCTATTA,0.0531
14,AACAGTCT,-0.124
15,CATAATGG,0.103
16,AAGCCACA,-0.118
17,AGCCGTTC,-0.0447
18,AGTGCGCA,0.106
19,TGCGAACA,0.0411
20,ATGTTTGG,0.135
21,GGCTTGTA,0.0712
22,CGGGACAG,-0.216

# — publication PMC6212790
